From PubChem BioAssay AID485294 (National Center for Advancing Translational Sciences (NCATS), 2010)
Hit rate of the full screen: of about 370,000 compounds, about 150 (0.041%) were called active. The inconclusive results got no clear call from the source; some entries with a clear call stand among them for comparison. Calls follow the shape of the dose curve; as a rule, active = well fitted inhibition curve with a large enough effect; inconclusive = small, poorly fitted or top-dose-only effect; inactive = flat fitted curve, though single readings scatter. No potency is given beside an inconclusive call; the fits are too rough.

biological target: Beta-lactamase (Escherichia coli (strain K12)) (UniProt P00811); experiment: qHTS Inhibitors of AmpC Beta-Lactamase (assay with detergent); conditions: AmpC hydrolysis of nitrocefin, absorbance 480 nm, 0.01% Triton; activity change, negative = inhibition: at 114 µM (top of the series); also: nearly all actives have a fitted effect of over 25% in size;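 as to activity change, negative = inhibition: 0% = no-compound wells and -100% = no-enzyme wells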
Sequence of UniProt P00811 (P00811 whole entry, looked up): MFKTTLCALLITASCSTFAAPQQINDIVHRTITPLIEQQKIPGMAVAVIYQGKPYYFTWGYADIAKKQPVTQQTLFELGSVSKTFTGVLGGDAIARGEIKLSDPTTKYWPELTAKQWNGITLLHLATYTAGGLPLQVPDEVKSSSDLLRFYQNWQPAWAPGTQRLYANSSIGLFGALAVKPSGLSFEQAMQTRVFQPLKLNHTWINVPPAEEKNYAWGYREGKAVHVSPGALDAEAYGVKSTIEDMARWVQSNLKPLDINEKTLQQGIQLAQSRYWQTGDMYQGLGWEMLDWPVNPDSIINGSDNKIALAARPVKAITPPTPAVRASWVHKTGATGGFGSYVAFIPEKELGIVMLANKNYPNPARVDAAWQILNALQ
Outline: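 AmpC (5.3 nM in the dispensed reagent) in 20 mM phosphate pH 7.0 with 0.01% (detergent screen) or 0.0001% Triton X-100 was preincubated with compounds for 15 min at room temperature. Nitrocefin was then added from an 800 uM solution, and hydrolysis was followed at 480 nm.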
Potency is read from the fitted curve at half-maximal effect; tags tell the direction and shape of the fitted curve.

How did the “activity change, negative = inhibition” value turn out when `O=C(Cc1cccc(NC(=O)C2CCN(C(=O)C3CCC3)CC2)c1)Nc1cccc(C(=O)N2CCCC2)c1` was run?
Its value is inactive: -7.61%.

For `O=C(Nc1ccccc1F)N(CCCN1CCOCC1)Cc1cc2cc3c(cc2[nH]c1=O)OCCO3`, which Potency is on record?
The Potency was inconclusive [inhibitor, partial curve, poor fit].

For `CCn1c(COc2ccccc2)nnc1SCC(=O)NC1CC1`, which Potency is on record?
The Potency was inconclusive [inhibitor, partial curve].

`CCCCc1c(O)nc(SCC(=O)NC(C)(C)C)n(-c2ccccc2C)c1=O` was tested. Which Potency did it give?
Its Potency is inconclusive [inhibitor, full curve, poor fit].

For `O=[N+]([O-])c1ccccc1/C=C/C=N/Nc1ccc(S(=O)(=O)Nc2ccc(Cl)cc2)cc1[N+](=O)[O-]`, which “activity change, negative = inhibition” value is on record?
The value was inactive: 1.41%.

With `CCN(CC(=O)Nc1c(Cl)cccc1Cl)C(=O)C1CCN(c2ncnc3sc(C)c(C)c23)CC1` as the molecule, how does the Potency read?
The Potency was inconclusive [inhibitor, full curve].

Which Potency does the source give for `Cc1cc(S(=O)(=O)NCCCn2ccnc2)c(C)cc1Cl` here?
Its Potency is inconclusive [inhibitor, full curve, poor fit].

Which “activity change, negative = inhibition” value does the source give for `COc1ccc2oc(C(=O)Nc3ccccn3)c(C)c2c1` here?
Its value is inactive: -3.98%.

For `Cc1nc2ccccn2c1-c1nnco1`, which Potency is on record?
Its Potency is inconclusive [inhibitor, partial curve, poor fit].

With `COc1cc(CN2CCNC(=O)C2CC(=O)NC2CCCC2)cc(OC)c1` (stereo unspecified) as the molecule, how does the Potency read?
The Potency was inconclusive [inhibitor, full curve].

For `Cc1ccc(-c2nnc(NC3CCCC3)s2)cc1`, which Potency is on record?
The Potency was inconclusive [inhibitor, partial curve].

With `CCOc1ccccc1NC(=O)N(Cc1ccc(C)o1)C1CCN(C(C)=O)CC1` as the molecule, how does the “activity change, negative = inhibition” value read?
Its value is inactive: -4.36%.

`CSc1ncccc1C(=O)OCc1c(F)cccc1Cl` was tested. Which Potency did it give?
Its Potency is inconclusive [inhibitor, full curve, poor fit].

How did the Potency turn out when `COc1ccc(C(=O)c2c[nH]cc2-c2ccccc2)cc1` was run?
Its Potency is inconclusive [inhibitor, partial curve].

For `Cc1ccc(-c2ccc(C)c(N)c2C)c(C)c1N`, which Potency is on record?
Its Potency is inconclusive [inhibitor, full curve, poor fit].

How did the Potency turn out when `O=C(c1cccs1)N1CCN(c2cc(Cl)ccc2Cl)CC1` was run?
Its Potency is inconclusive [inhibitor, full curve].

With `CCCN(CCC)CCSc1nc(O)c(C(C)C)c(=O)[nH]1` as the molecule, how does the Potency read?
Its Potency is inconclusive [inhibitor, partial curve, poor fit].

How did the Potency turn out when `CCn1c(SCC(=O)N/N=C/c2c[nH]c3ccccc23)nnc1-c1ccc(C)cc1` was run?
The Potency was inconclusive [inhibitor, single point].

`COC(=O)c1cccc(NC2=NS(=O)(=O)c3ccccc32)c1` was tested. Which “activity change, negative = inhibition” value did it give?
Its value is inactive: 4.24%.

How did the Potency turn out when `CC1CC(C)(C)CC2(C1)NC(=O)N(CC(=O)Nc1c(F)cccc1F)C2=O` (stereo unspecified) was run?
Its Potency is inconclusive [inhibitor, full curve, poor fit].

`Cc1ccc(C(=O)NC2CC2)cc1S(=O)(=O)N1CCOCC1` was tested. Which Potency did it give?
The Potency was inconclusive [inhibitor, full curve].

`Cc1ccccc1CN(C)c1ccc(S(=O)(=O)N2CCN(C)CC2)cn1` was tested. Which Potency did it give?
Its Potency is inconclusive [inhibitor, partial curve].

How did the Potency turn out when `CCOC(=O)C1CCCN(C(=O)c2cc(-c3ccc(F)cc3)nc3ccccc23)C1` (stereo unspecified) was run?
The Potency was inconclusive [inhibitor, partial curve, poor fit].

How did the Potency turn out when `c1ccc(C(c2ccccc2)N2CCN(Cc3nnnn3C3CCCC3)CC2)cc1` was run?
The Potency was inconclusive [inhibitor, partial curve, poor fit].

For `Cc1ccc2oc(=O)cc(/C=C/c3ccccc3)c2c1`, which Potency is on record?
Its Potency is inconclusive [inhibitor, partial curve].

`Nc1nc(NCc2ccccc2)nc(Nc2cccc(F)c2)c1[N+](=O)[O-]` was tested. Which Potency did it give?
Its Potency is inconclusive [inhibitor, partial curve, poor fit].

Which Potency does the source give for `CC(C)C(C)(C#N)NC(=O)CSc1nnc(-c2ccncc2)n1Cc1ccccc1` (stereo unspecified) here?
The Potency was inconclusive [inhibitor, partial curve].

`COc1ccc(N2CCN(C(=O)C3CCCN(S(=O)(=O)c4ccc(C)cc4)C3)CC2)cc1` (stereo unspecified) was tested. Which “activity change, negative = inhibition” value did it give?
The value was inactive: 0.708%.

For `COc1cc(/C=N/NC(=O)c2cccs2)ccc1OCc1ccccc1`, which “activity change, negative = inhibition” value is on record?
The value was inactive: -6.11%.

`CCn1c(C)nc2cc(S(=O)(=O)N3CCCC3)ccc21` was tested. Which Potency did it give?
Its Potency is inconclusive [inhibitor, full curve, poor fit].

Which Potency does the source give for `O=C(NC(=S)Nc1ccc(F)cc1)c1ccc2c(c1)OCCO2` here?
Its Potency is inconclusive [inhibitor, single point].

Which Potency does the source give for `CN(C1CCCCC1)S(=O)(=O)c1ccc(NC(=O)Cn2nc(-c3ccc(F)cc3)ccc2=O)cc1` here?
The Potency was inconclusive [inhibitor, full curve, poor fit].

Which “activity change, negative = inhibition” value does the source give for `COCCSc1ccccc1C(=O)Nc1ccc([N+](=O)[O-])cc1OC` here?
The value was inactive: -5.77%.

With `Cc1ccc(Cl)cc1N(CC(=O)NCc1ccccc1)S(C)(=O)=O` as the molecule, how does the “activity change, negative = inhibition” value read?
The value was inactive: -3.08%.

For `COCCn1c(-c2ccc(OC)cc2)cnc1SCC(=O)Nc1ccc(OC)cc1OC`, which Potency is on record?
Its Potency is inconclusive [inhibitor, partial curve].

Which Potency does the source give for `Cc1cc(Nc2ccc(Br)cc2F)n2ncnc2n1` here?
The Potency was inconclusive [inhibitor, partial curve, poor fit].

`O=C1OCCC1Sc1nnc(-c2cccc(Br)c2)o1` (stereo unspecified) was tested. Which Potency did it give?
Its Potency is inconclusive [inhibitor, full curve, poor fit].

`COc1ccc(C)cc1NC(=O)C(OC(=O)Cn1cnc2c1c(=O)n(C)c(=O)n2C)c1ccccc1` (stereo unspecified) was tested. Which Potency did it give?
Its Potency is inconclusive [inhibitor, full curve, poor fit].

Which Potency does the source give for `CCCCN1C(=O)Nc2ccccc2S1=O` (stereo unspecified) here?
Its Potency is inconclusive [inhibitor, single point].

With `COC(=O)c1ccccc1NC(=O)COC(=O)CSCC(=O)N1CCOCC1` as the molecule, how does the Potency read?
The Potency was inconclusive [inhibitor, full curve, poor fit].

How did the Potency turn out when `Clc1ccccc1OCCCn1ccnc1` was run?
The Potency was inconclusive [inhibitor, full curve, poor fit].

`CC(C)CCNC(=O)CSc1nc2ccsc2c(=O)n1NC(=O)c1ccccc1` was tested. Which Potency did it give?
Its Potency is inconclusive [inhibitor, partial curve, poor fit].

How did the “activity change, negative = inhibition” value turn out when `Cc1ccc(-c2cc(C(=O)Nc3ccc(S(=O)(=O)N4CC(C)OC(C)C4)cc3)[nH]n2)c(O)c1` (stereo unspecified) was run?
The value was inactive: -0.991%.

`Fc1ccc(C(c2nnnn2Cc2ccco2)N2CCN(C3CCCCC3)CC2)cc1` (stereo unspecified) was tested. Which Potency did it give?
Its Potency is inconclusive [inhibitor, partial curve, poor fit].

With `CCCc1cc(=O)[nH]c(SCC(N)=O)n1` as the molecule, how does the Potency read?
The Potency was inconclusive [inhibitor, full curve, poor fit].

`O=C(O)c1ccc(NS(=O)(=O)c2ccc3c(c2)OCCO3)cc1` was tested. Which Potency did it give?
The Potency was inconclusive [inhibitor, partial curve, poor fit].

Which “activity change, negative = inhibition” value does the source give for `Cc1ccc(C(=O)NCc2ccco2)cc1[N+](=O)[O-]` here?
The value was inactive: -8.99%.

`Cc1cccc(NC(=O)N2CCc3ccccc3C2)c1C` was tested. Which Potency did it give?
Its Potency is inconclusive [inhibitor, full curve].

Which Potency does the source give for `Cc1c(N=C2C(=O)Nc3ccccc32)c(=O)n(-c2ccccc2)n1C` here?
Its Potency is inconclusive [inhibitor, partial curve, poor fit].

For `COc1cc2c(cc1OC)C1=NC(=O)CN1C(SCc1ccccc1C)=N2`, which Potency is on record?
Its Potency is inconclusive [inhibitor, full curve, poor fit].

How did the “activity change, negative = inhibition” value turn out when `CCCCCOC(=O)Nc1nnc(CCC)s1` was run?
The value was inactive: -1.33%.

For `Cc1cc(C)nc(N2CCCC(C(=O)NC(C)CCc3ccco3)C2)n1` (stereo unspecified), which Potency is on record?
Its Potency is inconclusive [inhibitor, full curve, poor fit].

With `Cc1c(C(=O)N2CCCCC2)c(S(=O)(=O)NCCc2ccccc2)c(C)n1C` as the molecule, how does the “activity change, negative = inhibition” value read?
Its value is inactive: -1.27%.

With `COc1ccccc1/C=N/NC(=O)c1ccc(-c2ccccc2)cc1` as the molecule, how does the Potency read?
The Potency was inconclusive [inhibitor, partial curve, poor fit].

For `COc1ccc2nc(-c3ccco3)c(-c3ccco3)nc2c1`, which Potency is on record?
The Potency was inconclusive [inhibitor, partial curve, poor fit].

`CCOC(=O)C1CCCN(C2CC(=O)N(c3ccccc3)C2=O)C1` (stereo unspecified) was tested. Which “activity change, negative = inhibition” value did it give?
The value was inactive: -6.94%.

With `COc1ccc(Nc2cc(C)nc3c(C)cccc23)cc1OC` as the molecule, how does the Potency read?
Its Potency is inconclusive [inhibitor, single point].

With `COc1ccc(N2CCN(Cc3cc(=O)oc4c3ccc3ccccc34)CC2)cc1` as the molecule, how does the Potency read?
The Potency was inconclusive [inhibitor, partial curve, poor fit].

For `O=C(CCN1C(=O)c2ccccc2C1=O)Nc1ccc(-c2nc3ccccc3s2)cc1`, which “activity change, negative = inhibition” value is on record?
The value was inactive: 0.749%.

Which Potency does the source give for `Cc1ccc(C)c(N(C(=O)Cn2nnc(-c3cccs3)n2)C(C(=O)NC2CCCC2)c2ccncc2)c1` (stereo unspecified) here?
Its Potency is inconclusive [inhibitor, full curve, poor fit].

For `Cc1ccc(OCCNC(=O)C(=O)NCc2ccco2)cc1`, which Potency is on record?
The Potency was inconclusive [inhibitor, single point].

`O=C(Nc1ccc(Cl)cc1)N(CCCN1CCOCC1)Cc1cccs1` was tested. Which Potency did it give?
Its Potency is inconclusive [inhibitor, full curve, poor fit].

How did the Potency turn out when `CC1=C(C)C(=O)N(c2ccccn2)C1=O` was run?
Its Potency is inconclusive [inhibitor, full curve].

For `COc1ccc(C2=NOC(C(=O)Nc3ccc(C)cc3)C2)cc1OC` (stereo unspecified), which “activity change, negative = inhibition” value is on record?
Its value is inactive: 8.03%.

`COc1ccc(C(CCN2CCCC(C)C2)c2c(OC)cc(OC)c3c(C)cc(=O)oc23)cc1` (stereo unspecified) was tested. Which “activity change, negative = inhibition” value did it give?
Its value is inactive: -0.978%.

For `Cc1nn(CC(=O)Nc2ccccn2)c(C)c1Br`, which Potency is on record?
The Potency was inconclusive [inhibitor, single point].
